Assay results reported in the supplement of paper PMC4604168 (melanoma cell lines).
Some of the results follow. Repeats are few or missing, and single values can be far off.

Legend:
Test in all cases: cell count relative to DMSO control; melanoma cells; higher = more viable cells
Details in all cases: library dose: low library concentration; 72 h
MZ2-MEL = test system: MZ2-MEL
MeWo = test system: MeWo
RPMI7951 = test system: RPMI7951
RVH-421 = test system: RVH-421
SkMel28 = test system: SkMel28
SkMel2 = test system: SkMel2
SkMel30 = test system: SkMel30
SkMel5 = test system: SkMel5
UACC257 = test system: UACC257
UACC62 = test system: UACC62
WM115 = test system: WM115
WM1716 = test system: WM1716
WM1745 = test system: WM1745
WM3526 = test system: WM3526
WM3619 = test system: WM3619
WM451Lu = test system: WM451Lu
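Also: cell number obtained by counting DAPI-stained nuclei in high-throughput microscope images with image analysis software, screen run in 1,536-well plates.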

SMILES | cell count (MZ2-MEL) | cell count (MeWo) | cell count (RPMI7951) | cell count (RVH-421) | cell count (SkMel28) | cell count (SkMel2) | cell count (SkMel30) | cell count (SkMel5) | cell count (UACC257) | cell count (UACC62) | cell count (WM115) | cell count (WM1716) | cell count (WM1745) | cell count (WM3526) | cell count (WM3619) | cell count (WM451Lu)
Cn1cnc2c(F)c(Nc3ccc(Br)cc3Cl)c(C(=O)NOCCO)cc21 [selumetinib] + C=CCn1c(=O)c2cnc(Nc3ccc(N4CCN(C)CC4)cc3)nc2n1-c1cccc(C(C)(C)O)n1 [MK1775] (first compound 0.015 µM, partner dose 0.02 µM) | 76.6% | 85.8% | 130% | 90.7% | 73.7% | 56.6% | 72.8% | 105% | 78.8% | 72.9% | 80.2% | 94.2% | 86.3% | 66.3% | 81.1% | 114%
C[C@]1(O)C[C@@H](c2nc(-c3ccc4ccc(-c5ccccc5)nc4c3)c3c(N)nccn32)C1 + O=C(O)C(=O)Nc1sc2c(c1C(=O)O)CCNC2 [TCS401] (first compound 0.4 µM, partner dose 1.66667 µM) | 96% | 88% | 99.9% | 117% | 82.5% | 101% | 89.1% | 69.2% | 95.4% | 83.5% | 106% | 108% | 65.2% | 71.2% | 81.3% | 87.9%
C[C@]1(O)C[C@@H](c2nc(-c3ccc4ccc(-c5ccccc5)nc4c3)c3c(N)nccn32)C1 + COc1ccc2c(c1)CCC1C2CCC2(C)C(NCCCCCCN3C(=O)C=CC3=O)CCC12 [U73122] (first compound 0.4 µM, partner dose 0.4 µM) | 95.9% | 92.4% | 69.6% | 103% | 88.4% | 81.9% | 88% | 87.3% | 88.5% | 104% | 91.8% | 76.9% | 85.1% | 68.3% | 72.2% | 57.2%
C[C@]1(O)C[C@@H](c2nc(-c3ccc4ccc(-c5ccccc5)nc4c3)c3c(N)nccn32)C1 + O=C(Nc1cccc(Cl)c1)Nc1ncc(CCNc2ncnc3ccsc23)s1 [SNS314] (first compound 0.4 µM, partner dose 0.0008 µM) | 98.6% | 96.8% | 103% | 114% | 86% | 81.7% | 101% | 76% | 80.6% | 75.7% | 73.5% | 111% | 75.3% | 96.9% | 96% | 88.6%
C[C@]1(O)C[C@@H](c2nc(-c3ccc4ccc(-c5ccccc5)nc4c3)c3c(N)nccn32)C1 + Oc1cc(-c2nc(-c3ccccc3)[nH]c2-c2ccncc2)ccc1Cl [L779450] (first compound 0.4 µM, partner dose 0.2 µM) | 73.1% | 102% | 89.8% | 81% | 76.2% | 85.4% | 76.1% | 93.8% | 84.8% | 83.4% | 98.1% | 122% | 77.1% | 80.4% | 84.6% | 102%
C[C@]1(O)C[C@@H](c2nc(-c3ccc4ccc(-c5ccccc5)nc4c3)c3c(N)nccn32)C1 + O=C1NC(=O)/C(=C/c2ccc(-c3ccc(F)cc3O)o2)S1 [AS252424] (first compound 0.4 µM, partner dose 1 µM) | 95.5% | 91.3% | 110% | 113% | 88.2% | 81.5% | 87.6% | 111% | 89.4% | 90.2% | 97% | 113% | 79.8% | 82% | 98.5% | 106%
CCN(CC)CCNC(=O)c1c(C)[nH]c(/C=C2\C(=O)Nc3ccc(F)cc32)c1C [sunitinib] + Cn1cc(/C=C2\C(=O)Nc3cccnc32)c2ccccc21 [GW441756] (first compound 0.4 µM, partner dose 0.4 µM) | 105% | 75.4% | 95.6% | 117% | 85.7% | 111% | 73.7% | 85.5% | 85.7% | 93.5% | 99.5% | 123% | 78.1% | 82.3% | 124% | 98.6%
CCN(CC)CCNC(=O)c1c(C)[nH]c(/C=C2\C(=O)Nc3ccc(F)cc32)c1C [sunitinib] + CCN(CC)CCCCNc1ncc2cc(-c3cc(OC)cc(OC)c3)c(NC(=O)NC(C)(C)C)nc2n1 [PD173074] (first compound 0.4 µM, partner dose 0.1 µM) | 110% | 88% | 109% | 104% | 86.6% | 118% | 58.8% | 114% | 98% | 60.7% | 108% | 128% | 79.2% | 67.8% | 97.9% | 88%
Cn1cnc2c(F)c(Nc3ccc(Br)cc3Cl)c(C(=O)NOCCO)cc21 [selumetinib] + O=S(=O)(c1ccccc1)N(CC(F)(F)F)c1ccc(C(O)(C(F)(F)F)C(F)(F)F)cc1 [T0901317] (first compound 0.015 µM, partner dose 1.4 µM) | 97.5% | 86.8% | 90.5% | 76.1% | 83.2% | 75% | 81.6% | 111% | 84.9% | 74.6% | 82.5% | 94.1% | 74.9% | 63.5% | 69.9% | 97.8%
